Laboratory results reported in PubChem BioAssay AID588795 (National Center for Advancing Translational Sciences (NCATS), 2011).
“And” between values parts separate entries of the source, which are not always exact repeats. Equal entries are not always repeated. Among all 390,000 compounds or so, about 1,400 (0.36%) were called active. This list was built around the results that the source calls inconclusive (neither active nor inactive); the mix of calls is not that of the screen. The call rests on the fitted dose curve; in most records, active means well fitted inhibition curve with a large enough effect; inconclusive means small, poorly fitted or top-dose-only effect; inactive means no such curve, though single readings can be large or run the other way. Potencies of inconclusive entries are doubtful fits and often do not repeat.

These compounds were tested against Flap endonuclease 1 (Homo sapiens) (UniProt P39748) (assay: qHTS Assay for the Inhibitors of Human Flap endonuclease 1 (FEN1).). Settings: Recombinant FEN1 flap cleavage, fluorescence, 15 min; series mostly up to 114 µM.
Outline: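 FEN1 at 10 nM preincubated with compounds 15 min at room temperature, then flap DNA substrate added at 50 nM final. Signal read at 0 and 15 min; concentration-response fitted with four-parameter Hill equation.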
Further: nearly all actives have a fitted effect of over 65% in size.
Potency means the concentration at half of the fitted maximal effect; tags describe the fitted curve by direction and shape.

UniProt P39748, sequence (P39748 whole entry, looked up): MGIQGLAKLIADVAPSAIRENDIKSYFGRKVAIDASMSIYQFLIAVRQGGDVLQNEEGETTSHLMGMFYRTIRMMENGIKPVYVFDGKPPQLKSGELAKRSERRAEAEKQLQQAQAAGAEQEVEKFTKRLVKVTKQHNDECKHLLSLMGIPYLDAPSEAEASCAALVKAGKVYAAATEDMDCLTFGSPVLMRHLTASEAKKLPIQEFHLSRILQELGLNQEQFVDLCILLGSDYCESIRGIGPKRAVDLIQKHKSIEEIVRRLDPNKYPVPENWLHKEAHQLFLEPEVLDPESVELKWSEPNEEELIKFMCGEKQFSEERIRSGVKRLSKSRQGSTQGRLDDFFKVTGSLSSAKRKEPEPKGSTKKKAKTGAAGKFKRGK

Row | SMILES | Potency
1 | COc1cc(-c2c(NC(=O)c3ccco3)oc3ccccc3c2=O)cc(OC)c1OC | inactive
2 | CN(C)CCCNc1ncnc2sc(-c3ccccc3)cc12 | inconclusive: 15.8 µM [inhibitor, full curve]
3 | C/C=C/C=C\C(=O)Nc1cccc(C2=NOC3(C2)C[C@H](C(N)=O)N(C(=O)CC#N)C3)c1 (some centres not stated) | inconclusive: 79.4 µM [inhibitor, single point]
4 | O=C(NCc1ccco1)c1cc2c(s1)CSC2 | active: 50.1 µM
5 | O=C1c2ccccc2NC(c2ccccc2OCc2ccccc2)N1Cc1ccco1 (configuration not stated) | inconclusive: 70.8 µM [inhibitor, partial curve, poor fit]
6 | O=S(=O)(O)c1cccc2cccc(Nc3ccccc3)c12 | inconclusive: 35.5 µM [inhibitor, partial curve] and inconclusive: 89.1 µM [inhibitor, single point]
7 | CC1CCCN(Cc2c(O)ccc3c2O/C(=C\c2ccco2)C3=O)C1 (configuration not stated) | inconclusive: 50.1 µM [inhibitor, partial curve]
8 | COc1cccc2c(=O)c3cccc(N)c3[nH]c12 | inconclusive: 50.1 µM [inhibitor, partial curve, poor fit]
9 | CN(c1ccccc1)S(=O)(=O)c1ccc(NC(=O)CC(=O)c2ccccc2)cc1 | inconclusive: 50.1 µM [inhibitor, partial curve, poor fit]
10 | COc1ccc(NC(=O)CSc2nc3sc4c(c3c(=O)n2-c2ccc(OC)cc2)CCN(C)C4)cc1 | inconclusive: 89.1 µM [inhibitor, partial curve, poor fit]
11 | CCn1c2ccccc2c2cc(/C=C3\C=Cc4ccccc43)ccc21 | inactive
12 | c1ccc(OCCn2c(COc3ccccc3)nc3ccccc32)cc1 | inconclusive: 89.1 µM [inhibitor, partial curve, poor fit]
13 | COc1ccccc1NC(=O)CSc1sc2c(O)cc(=O)[nH]c2c1C#N | active: 50.1 µM
14 | COC(=O)c1ccc(CC(=O)c2c(C)cc(O)cc2O)o1 | inconclusive: 89.1 µM [inhibitor, single point]
15 | CC1CCN(C2=C(NS(=O)(=O)c3ccccc3)C(=O)c3ccccc3C2=O)CC1 | inconclusive: 89.1 µM [inhibitor, partial curve, poor fit]
16 | COc1ccc(Br)cc1CNc1ccccc1 | inconclusive: 70.8 µM [inhibitor, partial curve, poor fit]
17 | O=C(O)c1ccc(NC2=C/C(=N/S(=O)(=O)c3ccccc3)c3ccccc3C2=O)cc1 | inconclusive: 20 µM [inhibitor, full curve, poor fit]
18 | Cc1ccc(Cn2c(=S)[nH]c3ccc(N4CCOCC4)cc3c2=O)o1 | inconclusive: 89.1 µM [inhibitor, single point]
19 | Nc1[nH]nc2nc3ccccc3cc12 | inactive
20 | CC1CC(C)CN(C(=O)CSCC(=O)Nc2nc(-c3cccs3)cs2)C1 (configuration not stated) | inconclusive: 70.8 µM [inhibitor, partial curve, poor fit]
21 | Cc1nc(CC(=O)N/N=C/c2ccc(OCC(=O)O)cc2)cs1 | inactive

Row | SMILES | Potency
22 | OC1CCCN(Cc2c3ccccc3cc3ccccc23)C1 (configuration not stated) | inconclusive: 56.2 µM [inhibitor, partial curve, poor fit]
23 | O=C1c2ccccc2-c2onc3c(NCCO)cc(NC4CCCCC4)c1c23 | inconclusive: 5.62 µM [inhibitor, full curve, poor fit]
24 | COc1ccc(/C=N/Nc2cc(C)nc3ccc(Br)cc23)cc1 | inconclusive: 56.2 µM [inhibitor, partial curve, poor fit]
25 | CC(=O)Nc1ccc(SCC(=O)Nc2sccc2C#N)cc1 | inactive
26 | Cc1ccc2c(c1)N(CCCC(=O)NCc1cccc(F)c1)C(=O)CO2 | inactive
27 | Oc1cccc(NC(=S)N=Nc2c(O)[nH]c3ccc(Br)cc23)c1 | inconclusive: 56.2 µM [inhibitor, partial curve, poor fit]
28 | CC(C)(C)N(Cc1ccccc1)C(=O)COC(=O)c1ccc([N+](=O)[O-])o1 | inconclusive: 31.6 µM [inhibitor, single point]
29 | Cc1cccc(Nc2nc(N)c([N+](=O)[O-])c(N3CC(C)OC(C)C3)n2)c1 (configuration not stated) | inconclusive: 14.1 µM [inhibitor, partial curve, poor fit]
30 | Cc1ccc(S(=O)(=O)Cc2ccc(C(=O)O)o2)cc1 | inconclusive: 79.4 µM [inhibitor, single point]
31 | Cc1cc(/C=C2\C(=N)N3N=C(CC(=O)N4CCOCC4)SC3=NC2=O)c(C)n1-c1ccccc1 | inactive
32 | Cc1cc(N=Nc2ccc(C)c(N=Nc3cc(C)c(N)cc3N)c2)c(N)cc1N | active: 25.1 µM and active: 22.4 µM
33 | CN(C)S(=O)(=O)c1cccc(-c2nn(-c3ccccc3)cc2/C=C2\SC(=S)NC2=O)c1 | inconclusive: 56.2 µM [inhibitor, partial curve, poor fit]
34 | NS(=O)(=O)c1cccc(NC(=O)c2cccc(Oc3ccccc3)c2)c1 | inconclusive: 79.4 µM [inhibitor, partial curve, poor fit]
35 | CCOC(=O)c1cccc(N2C(=O)Nc3ccccc3N2O)c1 | inactive
36 | COc1cc(/C=C2/C(=O)c3cccc([N+](=O)[O-])c3C2=O)c(Br)cc1O | inconclusive: 44.7 µM [inhibitor, partial curve]
37 | COC(=O)c1ccccc1N/C=C1\CCc2c(c(C)nn2-c2ccccn2)C1=O | inconclusive: 50.1 µM [inhibitor, partial curve, poor fit]
38 | COc1ccc(Nc2nc(N)nc(CSc3nc4cc(OC)ccc4s3)n2)cc1 | inconclusive: 56.2 µM [inhibitor, partial curve, poor fit]
39 | COc1cccc2c1NC(C(=O)O)C1CC=CC21 (configuration not stated) | active: 25.1 µM
40 | CC(=O)OCC(=O)N1N=C(c2ccc3ccccc3c2)CC1c1ccccc1 (configuration not stated) | inactive
41 | CC(=O)Nc1ccc(SCCN2CCN(CC(C)C)CCC2=O)cc1 | inactive
42 | COc1ccc(N2Cc3cccc(C(=O)NC(C)CCc4ccco4)c3C2=O)cc1 (configuration not stated) | inconclusive: 17.8 µM [inhibitor, full curve]
